{"source": "PubChem BioAssay AID485344", "about": "(National Center for Advancing Translational Sciences (NCATS), 2010)", "note": "Among all 340,000 compounds or so, about 6,900 (2%) were called active. No stated cut-off is given here; in the data, active means inhibition above about 30%; inactive means below that, where a call was filed. This is a selection; strong and weak results do not stand in their true shares. Where no call is shown, the source filed none.", "data": [{"molecular_target": "D(2) dopamine receptor (Homo sapiens) (UniProt P14416)", "sequence (P14416 whole entry, looked up)": "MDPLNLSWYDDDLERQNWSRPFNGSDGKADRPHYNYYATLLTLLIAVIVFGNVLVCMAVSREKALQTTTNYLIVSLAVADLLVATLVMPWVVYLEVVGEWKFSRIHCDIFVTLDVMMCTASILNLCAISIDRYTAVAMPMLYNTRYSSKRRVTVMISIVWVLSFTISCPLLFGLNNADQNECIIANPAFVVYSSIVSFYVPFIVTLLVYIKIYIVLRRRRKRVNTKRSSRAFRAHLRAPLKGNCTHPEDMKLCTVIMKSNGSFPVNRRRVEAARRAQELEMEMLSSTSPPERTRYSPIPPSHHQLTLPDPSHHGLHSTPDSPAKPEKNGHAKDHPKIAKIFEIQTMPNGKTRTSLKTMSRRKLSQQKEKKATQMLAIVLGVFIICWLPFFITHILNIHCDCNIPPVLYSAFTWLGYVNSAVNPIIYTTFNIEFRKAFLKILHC", "experiment": "HTS Assay for Allosteric Antagonists of the Human D2 Dopamine Receptor: Primary Screen for Antagonists; further: 0% is about no effect", "conditions": "HEK293 TREx D2 cells, calcium flux, dopamine EC80; at 10 µM; stronger effect = higher value", "how_it_was_run": "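Antagonism is scored as inhibition of an EC80 dopamine-evoked calcium signal in a force-coupled, tetracycline-inducible HEK293 T-REx D2 line, with compound present 180 s before agonist.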", "values": [{"smiles": "CCOC(=O)c1ccccc1NC(=O)N1CC(C)Oc2ccc(C)cc21", "note": "(stereo not drawn)", "inhibition": "-2.33%"}, {"smiles": "CCOc1ccc(NC(=O)CCn2cccn2)cc1", "inhibition": "3.1%"}, {"smiles": "CCCCOC(=O)/C(C#N)=C\\c1ccc(-c2ccc(Cl)cc2)o1", "inhibition": "-1.66%"}, {"smiles": "Nc1nnc(SCC(=O)NNC(=O)c2ccccc2)s1", "inhibition": "active: 37.2%"}, {"smiles": "O=C(c1ccccc1F)N1c2nc(-c3ccco3)nn2C2(CCCCC2)[C@@H]2CCCC[C@@H]21", "inhibition": "6.31%"}, {"smiles": "Clc1cccc(-c2ccc(CNCCCN3CCOCC3)o2)c1", "inhibition": "active: 91.6%"}, {"smiles": "COc1ccccc1CNC(=O)c1ccc(-n2c(C)cc3c2CCCC3)cc1", "inhibition": "7.91%"}, {"smiles": "Cc1c(Cl)cccc1NS(=O)(=O)c1ccc(NS(=O)(=O)c2ccc3c(c2)OCCO3)cc1", "inhibition": "-12.1%"}, {"smiles": "COc1ccc(Cl)cc1NC(=O)c1cnc(N2CCCCC2)c2ccccc12", "inhibition": "2.84%"}, {"smiles": "CCOC(=O)Cn1c(=O)oc2cc(S(=O)(=O)NC(C)c3ccccc3)ccc21", "note": "(stereo not drawn)", "inhibition": "-6.34%"}, {"smiles": "CCc1ccc(CN(C(=O)Nc2cccc(Cl)c2)c2ccccn2)cc1", "inhibition": "11.2%"}, {"smiles": "COC(=O)c1nc2n(n1)C(c1cc(OC)ccc1OC)C=C(c1ccc(Br)cc1)N2", "note": "(stereo not drawn)", "inhibition": "-18.9%"}, {"smiles": "COc1ccc(C2=C(C)C(N3CCN(c4ccc(OC)cc4)CC3)=NS2(=O)=O)cc1", "inhibition": "-8.75%"}, {"smiles": "CCC(CC)C(=O)Nc1nnc(S(=O)(=O)N2c3ccccc3CC2C)s1", "note": "(stereo not drawn)", "inhibition": "-11.4%"}, {"smiles": "CC(C)OC(=O)c1ccc(NC(=O)c2cncc(Br)c2)cc1", "inhibition": "active: 44.6%"}, {"smiles": "CN(C(=O)c1ccc2c(c1)N(Cc1ccc(F)cc1)C(=O)c1ccccc1S2(=O)=O)C1CCCCC1", "inhibition": "-15.7%"}, {"smiles": "COc1ccc(C(=O)NNc2ncnc3c2cnn3-c2ccc(C)cc2C)cc1", "inhibition": "21.5%"}, {"smiles": "CC(=O)c1ccc(NC(=O)C(C)N2CCN(C/C=C/c3ccccc3)CC2)cc1", "note": "(stereo not drawn)", "inhibition": "active: 47%"}, {"smiles": "CCOCCCn1c(=N)c(C(=O)NC(C)c2ccccc2)cc2c(=O)n3cccc(C)c3nc21", "note": "(stereo not drawn)", "inhibition": "1.37%"}, {"smiles": "Cc1cc(N2CCC(C(=O)Nc3ccccc3Cl)CC2)n2nc(C)c(-c3ccc(Cl)cc3)c2n1", "inhibition": "-3.44%"}, {"smiles": "Fc1cccc(-c2nnn3c2nc(NCc2ccc4c(c2)OCO4)c2ccccc23)c1", "inhibition": "14.6%"}, {"smiles": "Cc1ccc2occ(CC(=O)Nc3ccc(Cl)c(C(F)(F)F)c3)c2c1", "inhibition": "-12.2%"}, {"smiles": "Cc1nc(N2CCCC2)ncc1C(=O)NCc1ccc(F)cc1", "inhibition": "16.1%"}, {"smiles": "Cc1cn2c(=O)c(S(=O)(=O)Nc3ccc(N4CCOCC4)cc3)c(C)nc2s1", "inhibition": "-12.7%"}, {"smiles": "Fc1ccc(F)c(CN2CCN(c3ncccn3)CC2)c1", "inhibition": "active: 78.7%"}, {"smiles": "O=C(c1ccco1)N1CCN(Cc2ccc(Br)cc2)CC1", "inhibition": "active: 79.7%"}, {"smiles": "COCCNC(=O)c1cnn(-c2cccc(C)c2)c1-n1cccc1", "inhibition": "0.0012%"}, {"smiles": "COc1cc2ncc3c(-c4ccccc4)nn(CC(=O)NC4CCCCC4)c3c2cc1OC", "inhibition": "2.39%"}]}]}
